This series deals with HEK293 cells. Description: GLuc luminescence by IRES, HEK293 cells. Particulars: HEK293, 100 ng circularization reaction. Here is the method: A trend of larger IRES producing greater luminescence at 24 hours was observed. Shorter total sequence length tends to increase circularization efficiency, so selecting a high expression and relatively short IRES may result in an improved construct.

Data on one molecule can be found in patent publication US20240245805A1 (Orna Therapeutics, Inc., priority 2020, published 2024).

B1: Crohivirus B IRES: selected IRES sequence, "Crohivirus B (CrVB) IRES", truncated and "operably linked to a Gaussia luciferase coding sequence" (nucleic acid)
DNA: GTATAAGAGACAGGTGTTTGCCTTGTCTTCGGACTGGCATCTTGGGACCAACCCCCCTTTTCCCCAGCCATGGGTTAAATGGCAATAAAGGACGTAACAACTTTGTAACCATTAAGCTTTGTAATTTTGTAACCACTAAGCTTTGTGCACATAATGTAACCATCAAGCTTGTTAGTCCCAGCAGGAGGTTTGCATGCTTGTAGCCGAAATGGGGCTCGACCCCCCATAGTAGGATACTTGATTTTGCATTCCATTGTGGACCTGCAAACTCTACACATAGAGGCTTTGTCTTGCATCTAAACACCTGAGTACAGTGTGTACCTAGACCCTATAGTACGGGAGGACCGTTTGTTTCCTCAATAACCCTACATAATAGGCTAGGTGGGCATGCCCAATTTGCAAGATCCCAGACTGGGGGTCGGTCTGGGCAGGGTTAGATCCCTGTTAGCTACTGCCTGATAGGGTGGTGCTCAACCATGTGTAGTTTAAATTGAGCTGTTCATATACC
modifications: Crohivirus B
Regarding B1, the “luminescence at 24 hours” value is listed as “produced the highest luminescence”.
